Laboratory results: the RNAGym collection of RNA variant scans (doi:10.7554/elife.90254)
The source gives no read counts; variants with many changes may rest on few reads.

B1: LINE1-full (parent)
chain: UACGUAGGUGGUUUUCCCCUGAUAGUGCUAAGGGGGCCUGGAAGUUUGGACUGGGCAGAGCUCAACACAGCGUGGCAAAGUGGCUGUGGCUAGACUGCCUCUCUGGAUUCCUCGUCACUCAGCAGGGCAUCUCUGAGAGAAAUGCC

Variants of: B1
Experiment: self-cleavage, relative activity (ratio to wild type); higher = more cleavage; in vitro, sequencing; the parent is a self-cleaving ribozyme

| Variant | self-cleavage |
| --- | --- |
| UGCGUAGGUGGUUUUCCCCUGAUAGUGCUAAGGGGGCCUGGAAGUCUAGACUGGGCAGAGCUCAACACAGCGUGGCGAAGUGGCUGUGGCUAGACUGCCUCUCUGGAUUCCUCGUCACUCAGCAGGGCAUCUCUGAGAGAAAUGCC [A2G U46C G48A A77G] | 1.15 |
| UACGUAGGUGGUUUUCCCCUGAUAGUGCUAAGGGGGCCUGGAAGUUUGGACCGGGCUGAGCUCAACACAGCGUGGCGAAGUGGCUGUGGCUAGACUGCCUCUCUGGAUUCCUCGUCACUCAGCAGGGCAUCUCUGAGAGAAAUGCC [U52C A57U A77G] | 0 |
| UACGUUGGUGGUGUUCCCCUGAUAGUGCUAAGGGGGCCUGGAAGUUUGGACUGGGCAGAGCACAACACAGCGUGGCAAAGUGGCUGUGGCUAGACUGCCUCUCUGGAUUCCUCGUCACUCAGCAGGGCAUCUCUGAGAGAAAUGCC [A6U U13G U62A] | 0.18 |
| UACGUAGGUGGUUUUCCCCUGAUAGUGCUAAGGGGGCCUGGAGGUUUGGACUGGGCAGAGCUCAACGCAGCGUGGCAAUGUGGCUGAGGCUAGACUGCCUCUCUGGAUUCCUCGUCACUCAGCAGGGCAUCUCUGAGAGAAAUGCC [A43G A67G A79U U87A] | 0 |
| UACGUAGGUGGUUUUCCCCUGAUAGUGCUAAGGGGGCCUGGAGGUUUGGACUAGGCAGAGCUCAACACAGCGUGGCAAAGUGGCUGUGGCUAGACUGCCUCUCUGGAUUCCUCGGCACCCAGCAGGGCAUCUCUGAGAGAAAUGCC [A43G G53A U115G U119C] | 0.89 |
| UACGUAGGUGGUUUUCCCCUGAUAGUGCUGAGGGGGCCUGGAAGUUUGGACUGGGCAGAGCUCAGCACAGCGUGGCAAAGUGGCUGUGGCUAGACUGCCUCUCUGGAUUCCUCGUCACUCAGCAGGGCAUCUCUGAGAGGAAAGCC [A30G A65G A140G U143A] | 0 |
| UACGUGGGUGGUUUUCCCCUGAUAGUGCUAAGGGGGCCUGGAAGUCUGGACUGGGCAGAGCUCAACACAGCGUGGCAAAGUGGCUGUGGCUAGACUGCCUCUCUGGAUUCCUCGUCACUCAGCAGGGCAUCCCUGAGAGAAAUGCC [A6G U46C U132C] | 0 |
| UACGUAGGUGGCUUUCCCCUGAUAGUGCUAAGGGGGCCCGGAAGUUUGGACUGGGCAGAGCUCAACACAGCGUGGCAAAGUGGCUGUGGCUAGACUGCCUCUCUGGAUUCCUCGUCACUCAGCAGGGCAUCUCCGAGAGAAAUGCC [U12C U39C U134C] | 1.1 |
| UACGUGGGUGGUUUUCCCCUGAUAGUGCUAAGGGGGCCUGGAGGUUUGGACUGGGCAGAGCUCAACACAGCGUGGCAAAGUGGCUGUGGCUAGACUGCCUCUCUGGAUUCCUCGGCACUCAGCAGGGCAUCACUGAGGGAAAUGCC [A6G A43G U115G U132A A138G] | 0.35 |
| UACGUAGGUGGUUUUCCCCUGAUAGUGCUAAGGGGGCCUGGAAGUCUGGACUGAUCAGAGCUCAACGCAGCGUGGCAAAGUGGCUGUGGCUAGACUGCCUCUCUGGAUUCCUCGUCACUCAGCAGGGCAUCUCUGAGAGAAAUGCC [U46C G54A G55U A67G] | 0.03 |
| UACGUAGGAGGUUUUCCCCUGAUAGUGCUAAGGGGGCCUGGAAGUUUGGACUGGGCAGAGCUCAACACAGCGUGGCAGAGUGGCUGUGGCUAGACUGCCUCUCUGGGUUCCUCGUCACUCAGCAGGGCAUCUCUGAGAGAAACGCC [U9A A78G A107G U143C] | 0 |
| UACGUAGGUGGUUUUCCCCUGAUAGUGCUAAGGGGGCCUGGAAGUUCGGACUGGGCUGAGCUCAACCCAGCGUGGCAAAGUGGCUGUGGCUAGACUGCCUCUCUGGAUUCCUCGUCACUCAGCAGGGCAUCUCUGAGAGAAAUGCC [U47C A57U A67C] | 0 |
| UACGUAGGUGGUUUCCCCCUGAUAGUGCUAAGGGGGCCUGGAAGUUUGGACUGGGCAGAGUUCAACACAGCGUGGCAAAGUGGCUGUGGCUAGACUGCCUCUCUGGGUUCCUCGUCACUCAGCAGGGCAUCUCUGAGAGAAAUGCC [U15C C61U A107G] | 0.09 |
| CACGUAGGUGGUUUUCCCCUGAUAGAGCUAAGGGGGCCUGGAAGUUUGGACUGGGCAGAGCUCAACACAGCGUGGCAAAGUGGCUGUGGCUAGACUGCCUCUCUGGAUUCCCUGUCACUCAGCAGGGCAUCUCAGAGAGAGAUGCC [U1C U26A U112C C113U U134A A141G] | 0.34 |
| UACGUAGGUGGUUUUCCCCUGAUAGUGCUAAGGGGGCCAGGAAGUUUGGACUGGGCAGAGCUCAACACAGCGUGGCUAAGCGGCUGUGGCUAGACUGCCUCUCUGGAUUCCUCGUCACUCAGCAGGGCAUCUCUGAGAGAAAUGCC [U39A A77U U81C] | 1.35 |
| UACGUAGGUGGUUUUCCCCUGAUAGUGCUAAGGGGGCCUGGAAGUUUGGACUGGGCAGAGCUCAACACAGCGUGGCUAAGCGGCUGUGGCUAGACUGCCUCUCUGGAUCCCUCGUCACUCAGCAGGGCAUCUCUGAGAGAAAUGCC [A77U U81C U109C] | 2.3 |
| UACGUAGGUGGUUUUCCCCUGAUAGUGCUAAGGGGGCCUGGAAGUUUGGACUGGGCAGGGCUCAACGCAGCGUGGCAAAGUGGCUGUGGCUAGACUGCCUCUCUGGAUUCCUCGUCACUCAGCAGGGCAUCUCUGAGAGGAAUGCC [A59G A67G A140G] | 0.54 |
| UACGUAGGUGGUUUUCCCCCGAUAGUGCUAAGGGGGCCUGGAAGUUUGGACUGGGCAGAGCUCAACACAGCGUGGCGAAGUGGCUGUGGCUAGACUGCCUCUCUGGAUUCCUCGUCACUCAGCAGGGCAUCUCGGAGAGAAAUGCC [U20C A77G U134G] | 1.81 |
| UACGUAGGUGGUUUUCCCCUGAUAGUGCUAAGGGGGCCUGGAAGUUUGGACUGGGCAGAGCUCAACACAGCGUGGCAAAGUGGCUGUGGCUAGACUGCCUCUCUGGAUUCCCCGUCACCCAGCAGGGCAUCUCUGAGAGUGAUGAC [U112C U119C A140U A141G C145A] | 1.52 |
| UACGUAGGUGGUCUUCCCCUGAUAGUGCUAAGGGGGCCUGGAAGUAUGGACUGGGCAGAGCUCAACACAGCGUGGCAAAGUGGCUGUGGCUAGACUGCCUCUCUGGAUUCCUCGUCACUCAGCAGGGCAUCUCUGGGAGAAAUGCC [U13C U46A A136G] | 1.45 |

| Variant | self-cleavage |
| --- | --- |
| UACGUAGGUGGUUUCCCCCUGAUAGUGCUAAGGGGGCCUGGAAGUUUGGACUGGGCAGAGCUCAACACAGGGUGGCGAAGUGGCUGUGGCUAGACUGCCUCUCUGGAUUCCUCGUCACUCAGCAGGGCAUCUCUGAGAGAAAUGCC [U15C C71G A77G] | 0.68 |
| UACGUAGGUGGUUUUCCCCUGAAAGUGCUGAGGGGGCCUGGAAGUUUGGACUGGGCAGAGCUCGACACAGCGUGGCAAAGUGGCUGUGGCUAGACUGCCUCUCUGGAUUCCUCGUCACUCAGCAGGGCAUCUCUGAGGGUAAUGCC [U23A A30G A64G A138G A140U] | 0.81 |
| UACGCAGGUGGAUUUCCCCCGAUAGUGCUAAGGGGGCCUGGAAGUUUGGACUGGGCGGAGCUCAACACAGCGUGGCAAAGUGGCUGUGGCUAGACUGCCUCUCUGGAUUCCUCGUCACUCAGCAGGGCAUCUCUGAGAGAAAUGCC [U5C U12A U20C A57G] | 0.42 |
| UACGUAGGCGGUUUACCCCUGAUAGUGCCAAGGGGGCCUGGAAGUUUGGACUGGGCAGAGCUCAACACAGCGUGGCAAAGUGGCUGUGGCUAGACUGCCUCUCUGGAUUCCUCGUCACUCAGCAGGGCAUCUCUGAGAGAAAUGCC [U9C U15A U29C] | 0 |
| UACGUAGGUGGUUUUCCCCUGAUAGUGCUAAGGGGGCCUGGAAGUUUGGACUGGGCGGAGCCCAACACAGCGUGGCAAAGUGGCUGUGGCUAGACUGCCUCUCUGGAUUCCACGUCACUCAGCAGGGCAUCUCUGAGAGAAAUGCC [A57G U62C U112A] | 0.04 |
| UACGUAGGCGGUUCUCUCCUGAUCGUGCUAAGGGGGCCUGGAAGUUUGGACUGGGCAGAGCUCAACACAGCGUGGCGAAGUGGCUGUGGCUAGACUGCCUCUCUGGAUUCCUCGUCACUUAGUAGGGCAUCUCUGAGAGAAAUGCC [U9C U14C C17U A24C A77G C120U C123U] | 1.08 |
| UACGUAGGUGGUUUUCCCCUGAUAGUGCUAAGGGGGCCUGGAAGUUUGGACUGAGCAGAGCUCAACACAGCGUGGCAAAGUGGCUGUGGCUAGACAGCCUCUCUGGAUUCCUCGUCACUCGGCAGGGCAUCUCUGGGAGAAAAGCC [G54A U96A A121G A136G U143A] | 0.03 |
| UACGUAGGUGGUUUCCUCCUGAUAGUGCUAAGGGGGCCUGGAAGUUUGGACUGGGCAGAGCUCAACACGGCGUGGCUAAGUGGCUGUGGCUAGACUGCCUCUCUGGAUUCCUCGUCACUCAGCAGGGCAUCUCUGAGAGAAAUGCC [U15C C17U A69G A77U] | 0.13 |
| UAAGUAGGUGGUUUUCCCCUGAUAGUGCUAAGGGGGCCUGGAAGUUUGGACUGGGCAGAGCUCAACACAGCGUGGCAAAGUGACUGUGGCUAGACUGCCUCUCUGGAUUCCUCGACACUCAGCAGGGCAUCUCUGAGAGAAAUGCC [C3A G83A U115A] | 0.51 |
| UACGUAGGUGGUUUUCCCCUGAUAGAGCUGAGGGGGCCUGGAAGUUUGGACUGGGCAGAGCACAACACAGCGUGGCAAAGUGGCUGUGGCUAGACUGCCUCUCUGGAUUCCUCGUCACUCAGCAGGGCAUCUCUGGGAGAAAAGCC [U26A A30G U62A A136G U143A] | 0.34 |
| AACGUAGGUGGUUUUCCCCUGAUAGUGCUAAGGGUGCCUGGAUGUUUGGACUGGGCAGAGCUCGACACAGCGUGGCAAAGUGGCUGUGGCUAGACUGCCUCUCUGGAUUCCUCGUCACUCGGCAGGGCAUCUCUGAGAGAAAUGCC [U1A G35U A43U A64G A121G] | 0.18 |
| UACGUAGGUGGUUUUCCCCUGAUAGUGCUAAGGGGGCCUGGAAGUUUGGACUGGGCGGAGCUCUACACAGCGUGGCGAAGUGGCUGUGGCUAGACUGCCUCUCUGGAUUCCUCGUCACUCAGCAGGGCGUCUCUGAGAGAAAUGCC [A57G A64U A77G A129G] | 0.14 |
| UACGUAGGUGGUUUUCCCCUGAUAGUGCUAAGGGGGCCUGGAAGUUUGGACUGGGCAGAGCUCAACACAGCGUGGCAAGGUGGCUGUGGCUAGACUGCCUCUCUGGAUUCCUCGUCACUCAGCGGGGCAUCUCUGAGGGAAAUGCC [A79G A124G A138G] | 0.57 |
| UACGUAGGUGGUUUUCCCCUGAUAGUGCUUAGGGGGCCUGGAAGUUUGGACUGGGCAGAGCUCAACACAGCGUGGCAAAGUGGCUGUGGCUAGACUGCCUCUCUGGAUUCCUCGUCACUCAGCAGGGCAUCUCUGAGAGAGGUGCC [A30U A141G A142G] | 0.92 |
| UACGUAGGUGGUUCUCCCCUGAUAGUGCUAAGGGGGCCUGGAAGUUUGGACUGGGCAGAGCUCACCACAGCGUGGCAAGGUGGCUGUGGCUAGACUGCCUCUCUGGAUUCCUCAUCACUCAGCAGGGCAUCGCUGAGAGAAAUGCC [U14C A65C A79G G114A U132G] | 0.07 |
| UACGUAGGAGGUUUUCCCCUGAUAGUGCUAAGGGGGCCUGGAAGUUUGGACUGGGCAGAGCUCAACACAGCGUGGCAAAGUGGCUGUGGCUAGACUGCCGCUCUGGAUUCCUCGUCACACAGCGGGGCAUCUCUGAGAGAAAUGCC [U9A U100G U119A A124G] | 1.84 |
| UACGUAGGUGGUUUUCCCCUGAUAGUGCUAAGGGGGCCUGGAAGUUUGGACUGGGCAGAGCUCAACACAGCGUGGCAAAGUGGCUGUGGCUAGACUGCCUCUCUGGAUUCCUCGACACUCAGCGGGGCGUCUCUGAGAGAAAUGCC [U115A A124G A129G] | 1.36 |
| CACGUAGGUGGUUUUCCCCUGAUAGUGCUAAGGGGGCCUGGAGGUUUGGACUGGGCAGAGCUCAACACAGCGUGGCAAAGUGGCUGUGGCUAGACUGCCUCUCUGGAUUCCUCGUCACUCAGCAGGGCAUCUCUGGGAGAAAUGCC [U1C A43G A136G] | 0.86 |
| CACGUAGGUGGGUUCCCCCUGAUAGUGCUAAGGGGGCCUGGAAGUUUGGACUGGGCAGAGCUCAACACAGCGUGGCAAAGUGGCUGUGGCUAGACUGCCUCUCUGGAUUCCUCGUCACUCAGCAGGGCAUCUCUGUGAGAAAUGCC [U1C U12G U15C A136U] | 1.49 |
